This series concerns the molecule itself. Description: single-molecule TIRF brightness analysis.

Consider one protein from publication PMC4154625 (Cytoskeleton (Hoboken, N.J.), 2014).

B1: four-repeat long (4RL) Tau C291I (natural protein)
chain: not shown
modifications: Alexa Fluor 488-C5 maleimide on the single remaining cysteine (C322); labeling efficiency 79-85%
In general, stoichiometry N refers to the number of molecules, sites or subunits per partner or assembly. Regarding B1, the “stoichiometry N” value turned out to be 2.
